Measurements from the supplement of paper PMC12217912.
This is one part of the list. Sequences were assembled here from the parent chain. Values near 0.05 are background.

B1: TEV protease; numbered along this chain (parent)
chain: MGESLFKGPRDYNPISSSICHLTNESDGHTTSLYGIGFGPFIITNKHLFRRNNGTLVVQSLHGVFKVKDTTTLQQHLVDGRDMIIIRMPKDFPPFPQKLKFREPQREERICLVTTNFQTKSMSSMVSDTSCTFPSGDGIFWKHWIQTKDGQCGSPLVSTRDGFIVGIHSASNFTNTNNYFTSVPKNFMELLTNQEAQQWVSGWRLNADSVLWGGHKVFMVKPEEPFQPVKEATQL

Variants of: B1
Assay: raw area under fraction-flipped curve 0-4 h after induction (AUC4h, not background-subtracted), DNA-recorder readout of cleavage of the substrate (dimensionless); higher = more cleavage of the substrate by the protease variant
Conditions: temperature: 34 °C; time window: 0-4 h after rhamnose induction
Procedure: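 In vivo DNA recorder in E. coli TOP10(DE3) ΔrhaA at 34 °C. Each TEVp single-site mutant (parent TEVp 0) is paired with a single-site variant of the 7-mer TEVs (canonical ENLYFQ|S). The substrate sits between flexible linkers in a Bxb1-sfGFP-TEVs-SsrA fusion, so cleavage stabilises Bxb1 and speeds flipping of a recombination array, read by NGS. The value is the raw area under the fraction-flipped curve over 0-4 h after rhamnose induction (AUC4h), with ≥20 reads per time point. It is not background-subtracted; inactive controls average about 0.047.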
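Note: Bxb1 expression induced with 0.2% (w/v) L-rhamnose at OD600 near 0.5, cultures sampled hourly, flipped fraction per protease–substrate barcode pair counted by paired-end Illumina sequencing.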

Row | Variant | area with substrate FNLYFQS | area with substrate GNLYFQS | area with substrate INLYFQS | area with substrate LNLYFQS | area with substrate NNLYFQS | area with substrate RNLYFQS | area with substrate TNLYFQS | area with substrate WNLYFQS | area with substrate KNLYFQS | area with substrate PNLYFQS
1 | MGESLFKGPRDYNPISSSICHLTNESDGHTTSLYGIGFGPFIITNKHLFRRNNGTLVVQSLHGVFKVKDTTTLQQHLVDGRDMIIIRMPKDFPPFPQKLKFREPQREERICLVTTNFQTKSMSSMVSDTSCTFPSGDGIFWKHWIQTKDGQCGSPLVSTRDGFIVGIHSASNFTNTNNYFTSVPLNFMELLTNQEAQQWVSGWRLNADSVLWGGHKVFMVKPEEPFQPVKEATQL [K185L] | 0.0491 | 0.0659 | 0.0627 | 0.0656 | 0.0466 | 0.0843 | 0.073 | 0.0686 |  | 
2 | MGESLFKGPRDYNPISSSICHLTNESDGHTTSLYGIGFGPFIITNKHLFRRNNGTLVVQSLHGVFKVKDTTTLQQHLVDGRDMIIIRMPKDFPPFPQKLKFREPQREERICLVTTNFQTKSMSSMVSDTSCTFPSGDGIFWKHWIQTKDGQCGSPLVSTRDGFIVGIHSASNFTNTNNYFTSVPNNFMELLTNQEAQQWVSGWRLNADSVLWGGHKVFMVKPEEPFQPVKEATQL [K185N] | 0.0366 |  |  |  |  |  | 0.0812 | 0.0561 | 0.0626 | 0.0622
3 | MGESLFKGPRDYNPISSSICHLTNESDGHTTSLYGIGFGPFIITNKHLFRRNNGTLVVQSLHGVFKVKDTTTLQQHLVDGRDMIIIRMPKDFPPFPQKLKFREPQREERICLVTTNFQTKSMSSMVSDTSCTFPSGDGIFWKHWIQTKDGQCGSPLVSTRDGFIVGIHSASNFTNTNNYFTSVPKNFMELLTKQEAQQWVSGWRLNADSVLWGGHKVFMVKPEEPFQPVKEATQL [N193K] | 0.0592 |  |  |  |  |  |  |  |  | 0.0844
4 | MGESLFKGPRDYNPISSSICHLTNESDGHTTSLYGIGFGPFIITNKHLFRRNNGTLVVQSLHGVFKVKDTTTLQQHLVDGRDMIIIRMPKDFPPFPQKLKFREPQREERICLVTTNFQTKSMSSMVSDTSCTFPSGDGIFWKHWIQTKDGQCGSPLVSTRDGFIVGIHSASNFTNTNNYFTSVPKNFMELLTNCEAQQWVSGWRLNADSVLWGGHKVFMVKPEEPFQPVKEATQL [Q194C] | 0.0754 | 0.0669 | 0.0772 | 0.0646 | 0.0466 | 0.0681 |  | 0.0492 |  | 
5 | MGESLFKGPRDYNPISSSICHLTNESDGHTTSLYGIGFGPFIITNKHLFRRNNGTLVVQSLHGVFKVKDTTTLQQHLVDGRDMIIIRMPKDFPPFPQKLKFREPQREERICLVTTNFQTKSMSSMVSDTSCTFPSGDGIFWKHWIQTKDGQCGSPLVSTRDGFIVGIHSASNFTNTNNYFTSVPKNFMETLTNQEAQQWVSGWRLNADSVLWGGHKVFMVKPEEPFQPVKEATQL [L190T] | 0.0682 |  | 0.0605 | 0.0697 |  |  |  |  |  | 0.0674
6 | MGESLFKGPRDYNPISSSICHLTNESDGHTTSLYGIGFGPFIITNKHLFRRNNGTLVVQSLHGVFKVKDTTTLQQHLVDGRDMIIIRMPKDFPPFPQKLKFREPQREERICLVTTNFQTKSMSSMVSDTSCTFPSGDGIFWKHWIQTKDGQCGSPLVSTRDGFIVGIHSASNFTNTNNYFTSVPKNAMELLTNQEAQQWVSGWRLNADSVLWGGHKVFMVKPEEPFQPVKEATQL [F187A] | 0.0716 | 0.0541 |  |  | 0.0424 |  |  | 0.0502 | 0.0474 | 
7 | MGESLFKGPRDYNPISSSICHLTNESDGHTTSLYGIGFGPFIITNKHLFRRNNGTLVVQSLHGVFKVKDTTTLQQHLVDGRDMIIIRMPKDFPPFPQKLKFREPQREERICLVTTNFQTKSMSSMVSDTSCTFPSGDGIFWKHWIQTKDGQCGSPLVSTRDGFIVGIHSASNFTNTNNYFTSVPKNGMELLTNQEAQQWVSGWRLNADSVLWGGHKVFMVKPEEPFQPVKEATQL [F187G] | 0.0895 | 0.0636 | 0.0549 | 0.0529 |  | 0.0576 | 0.0364 | 0.0633 | 0.0691 | 0.0623
8 | MGESLFKGPRDYNPISSSICHLTNESDGHTTSLYGIGFGPFIITNKHLFRRNNGTLVVQSLHGVFKVKDTTTLQQHLVDGRDMIIIRMPKDFPPFPQKLKFREPQREERICLVTTNFQTKSMSSMVSDTSCTFPSGDGIFWKHWIQTKDGQCGSPLVSTRDGFIVGIHSASNFTNTNNYFTSVPKNFMELLTNQEVQQWVSGWRLNADSVLWGGHKVFMVKPEEPFQPVKEATQL [A196V] | 0.0871 | 0.0619 | 0.0637 | 0.0656 | 0.0543 |  |  |  | 0.0598 | 0.083
9 | MGESLFKGPRDYNPISSSICHLTNESDGHTTSLYGIGFGPFIITNKHLFRRNNGTLVVQSLHGVFKVKDTTTLQQHLVDGRDMIIIRMPKDFPPFPQKLKFREPQREERICLVTTNFQTKSMSSMVSDTSCTFPSGDGIFWKHWIQTKDGQCGSPLVSTRDGFIVGIHSASNFTNTNNYFTSVPKNFMELLTNQEAQGWVSGWRLNADSVLWGGHKVFMVKPEEPFQPVKEATQL [Q198G] | 0.0929 |  | 0.0606 |  | 0.0628 |  | 0.0587 |  |  | 
10 | MGESLFKGPRDYNPISSSICHLTNESDGHTTSLYGIGFGPFIITNKHLFRRNNGTLVVQSLHGVFKVKDTTTLQQHLVDGRDMIIIRMPKDFPPFPQKLKFREPQREERICLVTTNFQTKSMSSMVSDTSCTFPSGDGIFWKHWIQTKDGQCGSPLVSTRDGFIVGIHSASNFTNTNNYFTSVPKNFMELLTNQEARQWVSGWRLNADSVLWGGHKVFMVKPEEPFQPVKEATQL [Q197R] | 0.0722 | 0.0564 |  |  |  |  |  |  |  | 
11 | MGESLFKGPRDYNPISSSICHLTNESDGHTTSLYGIGFGPFIITNKHLFRRNNGTLVVQSLHGVFKVKDTTTLQQHLVDGRDMIIIRMPKDFPPFPQKLKFREPQREERICLVTTNFQTKSMSSMVSDTSCTFPSGDGIFWKHWIQTKDGQCGSPLVSTRDGFIVGIHSASNFTNTNNYFTSVPKNFMYLLTNQEAQQWVSGWRLNADSVLWGGHKVFMVKPEEPFQPVKEATQL [E189Y] | 0.0614 |  |  |  |  |  |  |  |  | 

Same assay, conditions: temperature: 34 °C; time window: 0-4 h after rhamnose induction

Row | Variant | area with substrate SNLYFQS | area with substrate HNLYFQS | area with substrate YNLYFQS | area with substrate MNLYFQS | area with substrate VNLYFQS
12 | MGESLFKGPRDYNPISSSICHLTNESDGHTTSLYGIGFGPFIITNKHLFRRNNGTLVVQSLHGVFKVKDTTTLQQHLVDGRDMIIIRMPKDFPPFPQKLKFREPQREERICLVTTNFQTKSMSSMVSDTSCTFPSGDGIFWKHWIQTKDGQCGSPLVSTRDGFIVGIHSASNFTNTNNYFTSVPNNFMELLTNQEAQQWVSGWRLNADSVLWGGHKVFMVKPEEPFQPVKEATQL [K185N] | 0.0739 |  |  |  | 
13 | MGESLFKGPRDYNPISSSICHLTNESDGHTTSLYGIGFGPFIITNKHLFRRNNGTLVVQSLHGVFKVKDTTTLQQHLVDGRDMIIIRMPKDFPPFPQKLKFREPQREERICLVTTNFQTKSMSSMVSDTSCTFPSGDGIFWKHWIQTKDGQCGSPLVSTRDGFIVGIHSASNFTNTNNYFTSVPKNFMELLTKQEAQQWVSGWRLNADSVLWGGHKVFMVKPEEPFQPVKEATQL [N193K] |  | 0.0611 | 0.0687 |  | 
14 | MGESLFKGPRDYNPISSSICHLTNESDGHTTSLYGIGFGPFIITNKHLFRRNNGTLVVQSLHGVFKVKDTTTLQQHLVDGRDMIIIRMPKDFPPFPQKLKFREPQREERICLVTTNFQTKSMSSMVSDTSCTFPSGDGIFWKHWIQTKDGQCGSPLVSTRDGFIVGIHSASNFTNTNNYFTSVPKNFMELLTNCEAQQWVSGWRLNADSVLWGGHKVFMVKPEEPFQPVKEATQL [Q194C] | 0.0745 | 0.0815 | 0.0395 | 0.0656 | 0.0638
15 | MGESLFKGPRDYNPISSSICHLTNESDGHTTSLYGIGFGPFIITNKHLFRRNNGTLVVQSLHGVFKVKDTTTLQQHLVDGRDMIIIRMPKDFPPFPQKLKFREPQREERICLVTTNFQTKSMSSMVSDTSCTFPSGDGIFWKHWIQTKDGQCGSPLVSTRDGFIVGIHSASNFTNTNNYFTSVPKNFMETLTNQEAQQWVSGWRLNADSVLWGGHKVFMVKPEEPFQPVKEATQL [L190T] |  |  |  | 0.0729 | 
16 | MGESLFKGPRDYNPISSSICHLTNESDGHTTSLYGIGFGPFIITNKHLFRRNNGTLVVQSLHGVFKVKDTTTLQQHLVDGRDMIIIRMPKDFPPFPQKLKFREPQREERICLVTTNFQTKSMSSMVSDTSCTFPSGDGIFWKHWIQTKDGQCGSPLVSTRDGFIVGIHSASNFTNTNNYFTSVPKNAMELLTNQEAQQWVSGWRLNADSVLWGGHKVFMVKPEEPFQPVKEATQL [F187A] |  | 0.053 | 0.0523 | 0.0577 | 
17 | MGESLFKGPRDYNPISSSICHLTNESDGHTTSLYGIGFGPFIITNKHLFRRNNGTLVVQSLHGVFKVKDTTTLQQHLVDGRDMIIIRMPKDFPPFPQKLKFREPQREERICLVTTNFQTKSMSSMVSDTSCTFPSGDGIFWKHWIQTKDGQCGSPLVSTRDGFIVGIHSASNFTNTNNYFTSVPKNGMELLTNQEAQQWVSGWRLNADSVLWGGHKVFMVKPEEPFQPVKEATQL [F187G] | 0.0542 | 0.0409 | 0.0553 | 0.0456 | 
18 | MGESLFKGPRDYNPISSSICHLTNESDGHTTSLYGIGFGPFIITNKHLFRRNNGTLVVQSLHGVFKVKDTTTLQQHLVDGRDMIIIRMPKDFPPFPQKLKFREPQREERICLVTTNFQTKSMSSMVSDTSCTFPSGDGIFWKHWIQTKDGQCGSPLVSTRDGFIVGIHSASNFTNTNNYFTSVPKNFMELLTNQEVQQWVSGWRLNADSVLWGGHKVFMVKPEEPFQPVKEATQL [A196V] |  |  | 0.0687 |  | 
19 | MGESLFKGPRDYNPISSSICHLTNESDGHTTSLYGIGFGPFIITNKHLFRRNNGTLVVQSLHGVFKVKDTTTLQQHLVDGRDMIIIRMPKDFPPFPQKLKFREPQREERICLVTTNFQTKSMSSMVSDTSCTFPSGDGIFWKHWIQTKDGQCGSPLVSTRDGFIVGIHSASNFTNTNNYFTSVPKNFMELLTNQEAQGWVSGWRLNADSVLWGGHKVFMVKPEEPFQPVKEATQL [Q198G] |  | 0.0646 | 0.0619 |  | 
20 | MGESLFKGPRDYNPISSSICHLTNESDGHTTSLYGIGFGPFIITNKHLFRRNNGTLVVQSLHGVFKVKDTTTLQQHLVDGRDMIIIRMPKDFPPFPQKLKFREPQREERICLVTTNFQTKSMSSMVSDTSCTFPSGDGIFWKHWIQTKDGQCGSPLVSTRDGFIVGIHSASNFTNTNNYFTSVPKNFMELLTNQEARQWVSGWRLNADSVLWGGHKVFMVKPEEPFQPVKEATQL [Q197R] |  |  |  | 0.0554 | 
